From publication PMC10726135 come the findings set out here.

Some of the results follow. At the low end of the ranking the order means little. The protein was read in a cell extract, so binding may be indirect.

The test addresses T1, HNF4alpha2 (COS-7 nuclear extract) (UniProt P41235).
T1 sequence: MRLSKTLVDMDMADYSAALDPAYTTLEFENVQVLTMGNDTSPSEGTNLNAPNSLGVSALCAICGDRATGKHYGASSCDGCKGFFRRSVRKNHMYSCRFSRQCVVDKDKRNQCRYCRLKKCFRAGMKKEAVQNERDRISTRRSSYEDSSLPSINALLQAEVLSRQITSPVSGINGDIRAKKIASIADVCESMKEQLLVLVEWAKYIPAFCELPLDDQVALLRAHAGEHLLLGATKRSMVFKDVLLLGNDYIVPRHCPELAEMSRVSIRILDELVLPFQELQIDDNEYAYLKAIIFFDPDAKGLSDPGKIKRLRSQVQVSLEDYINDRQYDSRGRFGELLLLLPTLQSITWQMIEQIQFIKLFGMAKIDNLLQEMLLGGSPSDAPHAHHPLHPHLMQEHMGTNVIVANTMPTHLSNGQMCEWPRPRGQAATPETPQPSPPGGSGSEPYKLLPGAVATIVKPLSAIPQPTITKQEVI
The test is described as follows: protein-binding microarray. Particulars: COS-7 nuclear extract on double-stranded Agilent 4x180k PBM; binding buffer, salt, pH and temperature not given; high values mean tight binding; double strand, one strand shown; sequences stand for … in …GCCTAGGGAGATTAGAGTATCGGTCGA
In the case of GGATTTGGAGATCAGAGTCCAGCTGTGCCC, the binding signal (log2 normalized intensity) was 2.44.

CCAGTTTGCATTTTCATGGACAGAGATTAT: the binding signal (log2 normalized intensity) was -0.196.

For TAAGATTAGGTGCTGAGCAACTATAAAACA, the binding signal (log2 normalized intensity) was -0.893.

Regarding CCTTCAAGGATTAGCAGATAAATCTAGGCC, the binding signal (log2 normalized intensity) is -0.975.

Regarding GATATCCATCATGTTTATCTTCTGCTTTCA, the binding signal (log2 normalized intensity) was -1.13.

Regarding AACTTGTGTTCAGAGCTTGCTGCATTCCCC, the binding signal (log2 normalized intensity) came to 1.44.

CAACTAGGGCAAAGGTTAGCTTGGACAGAG: the binding signal (log2 normalized intensity) is 2.72.

For TGTGTAACATTCCACAGGAACCAAAGTCTA, the binding signal (log2 normalized intensity) turned out to be 1.66.

As to TTTCTGTCTAGGTGCCAGAATTGCTGCTCC, the binding signal (log2 normalized intensity) was -0.947.

CAAAAGAGAAAACTCCCTCAGAGATGTTTA: the binding signal (log2 normalized intensity) is -1.05.

GGGCTGCGGAGGCGACTGCAGATTGACCTG: the binding signal (log2 normalized intensity) amounted to 3.36.

Take ACCGATTGTGTTTTAGGCAAACATTTGCGC: the binding signal (log2 normalized intensity) worked out at 0.846.

Consider AAACTCTGAAGGCAAATTCTTAGAATTGCA, for which the binding signal (log2 normalized intensity) is -0.775.

For the sequence GCTGAATTCCCATCTAAGACTTTATTTGAA, the binding signal (log2 normalized intensity) was -0.261.

On to GCATCTGTTTTTATTTCCCCTTTCTGTTGG, for which the binding signal (log2 normalized intensity) came out at 2.36.

AAGCATTTGGAGATTGCCACCTTGGTGAGA: the binding signal (log2 normalized intensity) was determined as 0.715.

As to AGTCAGGTACCTGCTTCTGCCCCAGTTAAC, the binding signal (log2 normalized intensity) is 3.09.

In the case of TGTTTAACAGAGATTTGCAGCTCAAAGTGC, the binding signal (log2 normalized intensity) was 0.949.

As to CCCAAGTAATAGCCGTTTCTGTCCAGAGTT, the binding signal (log2 normalized intensity) stood at 0.304.

For the sequence AGATGCTTTGAAGTGTAAAAGGATCATGGA, the binding signal (log2 normalized intensity) was determined as 0.452.

As to GCGCGTGTTCCCGTCCGTGCGGTCGGGCGC, the binding signal (log2 normalized intensity) is -0.786.

For the sequence AATGATGTTTACATTCCAGAAAAGGCCTAA, the binding signal (log2 normalized intensity) was found to be 0.346.

AAACACCCACCTTGTTATCTTGTCTCTTCT: the binding signal (log2 normalized intensity) turned out to be 1.44.

Take CAGTTTGTTCTTGGGGCCCACAGAGTCCAG: the binding signal (log2 normalized intensity) is 2.44.

Consider GTACAAAGCCCCATATTCATAGACTCTGCA, for which the binding signal (log2 normalized intensity) stood at 0.766.

Consider GTGTGAAGTAATCCCCAGTATAAACAACAC, for which the binding signal (log2 normalized intensity) worked out at 1.68.

Take ATCTGAGTGTCAAAAACAATACCAGGAGCT: the binding signal (log2 normalized intensity) was -1.16.

As to GCCACGGGAAAACCTGACTGCGCTCCCAGA, the binding signal (log2 normalized intensity) was -1.2.

Regarding GTTCTAGCCCTGGTGAGTCAGTTCCCCTGC, the binding signal (log2 normalized intensity) turned out to be 1.5.

Take AGTCTGTGGAGACACTGCCAGTGTCTCAGG: the binding signal (log2 normalized intensity) was -0.608.

As for CCAGGGACTTTGAACACTTCTTTGTTACTT, the binding signal (log2 normalized intensity) came out at 2.44.

Turning to CACAAATTGGAGAGCATCTTGGACTTGGGA, the binding signal (log2 normalized intensity) was determined as 2.73.

Turning to CCCAACCAAAAACAAAACTGGTCATACAGC, the binding signal (log2 normalized intensity) was -1.15.

Consider GGGGATTCTTTCTAAAGTGACTTAGCAGGA, for which the binding signal (log2 normalized intensity) amounted to 0.943.

On to ACTTTTGCAATGTTTCCAAACCCCTCGGGA, for which the binding signal (log2 normalized intensity) is 0.897.

With CAAGATAAGATACGAAGGGTTTAAAGGGCA, the binding signal (log2 normalized intensity) came out at 2.43.

For the sequence GTTGCAGCATTGTTGGGATTAAGGAGAAGG, the binding signal (log2 normalized intensity) is -1.08.

On to CACCTCCCTCAGAGCTCAGATGAACTTTGC, for which the binding signal (log2 normalized intensity) was 5.96.

As to ACTTTGGACTTGGGACTTTCGAGTTAATGC, the binding signal (log2 normalized intensity) is 4.12.

On to AAAGGCTGTCACACTTGCCCTTTGCCCTCA, for which the binding signal (log2 normalized intensity) came out at 8.34.

With CAGATAGATGGTCAGTGAACTGTGGTTGAC, the binding signal (log2 normalized intensity) was 1.56.

In the case of ACAATTGTCCCCAAGATTGAGGCCAGCAAA, the binding signal (log2 normalized intensity) is -0.859.

As to TCATTGCCTCTGGGCTTTGATGGACATTGC, the binding signal (log2 normalized intensity) is 3.19.

Turning to CAAGGGGGTGGTGAAATGGGGGAAGGGCTG, the binding signal (log2 normalized intensity) was -1.14.

In the case of TAAGCCACAGACAAATATTTGCTGTTACTC, the binding signal (log2 normalized intensity) was -0.954.

As to CTCAATCTTTGCCCTCTTGGTATCAGCTTT, the binding signal (log2 normalized intensity) amounted to 2.23.

In the case of AAAAAGTCCCTGGTCCCATAGGAAAGTGAG, the binding signal (log2 normalized intensity) was -0.855.

Turning to CATCAAAGCCAGGACTTCTAGAGTGAGCCA, the binding signal (log2 normalized intensity) was -1.09.

Consider GGGGCTGGGCCCCACAGTGCATCTGATAAG, for which the binding signal (log2 normalized intensity) was -0.518.

As to GAAGAGGACTTTTTTTTGCCTAACTGCTGC, the binding signal (log2 normalized intensity) was -1.08.

For GTGAAGGACACAGAATGACTTTCAGAAAGT, the binding signal (log2 normalized intensity) amounted to 0.537.

Turning to GTTTCTCCACAGCCTCACCAACAGGATTGT, the binding signal (log2 normalized intensity) was -1.14.

In the case of AAAAACACCTGGTTCCTTGCAAGATAAGGG, the binding signal (log2 normalized intensity) was -1.08.

As to GCCTTAAGAGTCAAAGGGCAAAGGAATAAA, the binding signal (log2 normalized intensity) was found to be 1.58.

On to TGCTCCTGCACTTTTGTGCTCTGTACCCGG, for which the binding signal (log2 normalized intensity) is 2.23.

As for CCTTCGTTTGCTTTTCCTTATCATCACATG, the binding signal (log2 normalized intensity) came out at 1.55.

As to GTGGGAAAATTCCCCAGGAGGAGATAAGAT, the binding signal (log2 normalized intensity) is -1.22.

In the case of GCGCCCCCGTGTGGCCGCGAGCACCGCGCG, the binding signal (log2 normalized intensity) is 2.55.

In the case of TTTGCCCTCTCTTCAGCACCTTTTAAAATA, the binding signal (log2 normalized intensity) was determined as 0.354.

With GCCTCCACTCCTCCTCCTTCCCTCCTGCTC, the binding signal (log2 normalized intensity) turned out to be 1.3.

In the case of CAATCTTGTTGGGTCAGTTTATCGAAAATC, the binding signal (log2 normalized intensity) stood at 1.66.

GCAATCACAAGGAATGCCCTTATCTCCCAG: the binding signal (log2 normalized intensity) was 0.579.

For the sequence GGGAGGCCGCTGACAAGCAGCCTCAGTGGC, the binding signal (log2 normalized intensity) is -1.02.

On to GGGGCCCACTGAGACGGGCTGAGGATGAGG, for which the binding signal (log2 normalized intensity) is -1.14.

For CATCTGGGGAAAGTGCAAGGGCCCAGAGGA, the binding signal (log2 normalized intensity) is -1.04.

On to GTGAAACACAGGACTTGATCCAGGGCAAAG, for which the binding signal (log2 normalized intensity) was -1.11.

For GCTGGAATCTTGATAATGCCCTGACCCTAG, the binding signal (log2 normalized intensity) turned out to be 2.47.

For the sequence GAGGACTTTGGCCTTTTGTGAGATATGGAC, the binding signal (log2 normalized intensity) came out at 3.45.

On to CGTGAAAGTTAACTTTGTAACTAACAACTG, for which the binding signal (log2 normalized intensity) was found to be 0.627.

Take CTAAATGGTAGGATTGTTTGGGGATTACAC: the binding signal (log2 normalized intensity) worked out at 0.61.

Turning to GCAAAACCTGATGTTTGGACAGTGTGACTC, the binding signal (log2 normalized intensity) stood at 0.907.

Regarding ACTGATGCTCATAGCTACGGGTGACCTTGA, the binding signal (log2 normalized intensity) amounted to 3.58.

In the case of GAGGTGTCAGCCACCCCTCCTCCTGGGGGC, the binding signal (log2 normalized intensity) was 2.64.
